Measurements published in article PMC4336329 (PLoS ONE, 2015).
About 14,000 (4.5%) of roughly 310,000 compounds showed an effect of 50% or more. Effects have a minus sign here. Some of the results follow.

biological target: human ether-à-go-go-related gene (hERG) potassium channel (human, UniProt Q12809); assay: primary screen, population patch clamp on CHO cells stably expressing hERG
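Further: peak tail current of the secondary pulse compared with the same well before compound.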

human ether-à-go-go-related gene (hERG) potassium channel, sequence (Q12809 whole entry, looked up): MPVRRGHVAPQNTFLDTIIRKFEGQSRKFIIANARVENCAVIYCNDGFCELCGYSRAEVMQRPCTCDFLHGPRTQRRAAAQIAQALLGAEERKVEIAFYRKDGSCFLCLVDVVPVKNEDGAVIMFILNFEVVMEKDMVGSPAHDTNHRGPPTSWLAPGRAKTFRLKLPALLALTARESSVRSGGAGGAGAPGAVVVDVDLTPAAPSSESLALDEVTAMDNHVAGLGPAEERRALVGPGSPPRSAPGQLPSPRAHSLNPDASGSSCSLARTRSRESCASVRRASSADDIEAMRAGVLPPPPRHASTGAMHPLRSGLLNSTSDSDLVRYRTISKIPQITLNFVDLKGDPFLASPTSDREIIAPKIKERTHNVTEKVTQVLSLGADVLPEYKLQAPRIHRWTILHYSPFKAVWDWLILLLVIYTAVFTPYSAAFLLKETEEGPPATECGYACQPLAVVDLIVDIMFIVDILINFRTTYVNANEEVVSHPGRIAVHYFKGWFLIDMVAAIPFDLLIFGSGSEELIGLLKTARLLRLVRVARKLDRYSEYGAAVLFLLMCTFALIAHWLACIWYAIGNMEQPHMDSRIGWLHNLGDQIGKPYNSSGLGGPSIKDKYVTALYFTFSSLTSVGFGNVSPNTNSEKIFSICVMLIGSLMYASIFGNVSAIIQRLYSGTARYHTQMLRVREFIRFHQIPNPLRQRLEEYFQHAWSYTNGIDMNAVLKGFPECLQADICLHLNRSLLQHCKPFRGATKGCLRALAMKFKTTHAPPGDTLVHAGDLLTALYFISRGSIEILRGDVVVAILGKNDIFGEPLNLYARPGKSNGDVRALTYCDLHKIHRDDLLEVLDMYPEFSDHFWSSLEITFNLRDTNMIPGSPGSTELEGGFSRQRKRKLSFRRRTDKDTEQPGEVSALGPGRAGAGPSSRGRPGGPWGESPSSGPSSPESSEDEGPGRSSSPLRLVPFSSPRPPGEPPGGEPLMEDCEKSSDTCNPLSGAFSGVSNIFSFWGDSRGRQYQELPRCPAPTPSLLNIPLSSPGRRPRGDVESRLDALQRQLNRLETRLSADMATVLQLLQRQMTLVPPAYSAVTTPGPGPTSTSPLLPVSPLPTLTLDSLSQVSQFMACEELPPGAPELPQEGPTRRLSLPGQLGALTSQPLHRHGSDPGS

Row | SMILES | hERG current change (%, negative = inhibition) at 10uM
1 | CC(=O)NC(Cc1ccccc1C)C(=O)NC1CCN(C(=O)c2cccc(C)c2)CC1 (stereo not shown) | 34.5%
2 | CC1CN(C(=O)COC(=O)c2ccc(S(=O)(=O)N(C)C)cc2)CC(C)O1 (stereo not shown) | 25.6%
3 | COc1ccccc1/C=C/C(=O)N1CCOCC1 | 6.65%
4 | C=CCN(CC=C)C(=S)NC(=O)c1ccc([N+](=O)[O-])cc1 | -0.526%
5 | Cc1ccc(C(=O)N/C(=C\c2ccc(C(C)C)cc2)C(=O)NCCCN2CCOCC2)cc1 | -72.3%
6 | CCCOc1ccc(NC(=O)CCC(=O)NC(C)c2ccccc2)cc1 (stereo not shown) | 22.5%
7 | Cc1nn(-c2ccccc2)c(Cl)c1C(=O)NC1CCCCC1 | -16.1%
8 | O=C(C1CCCC1)N1CCCC(Nc2ccccc2)C1 (stereo not shown) | -20.4%
9 | CCOC(=O)N1CCC(NC(=O)CCC(=O)c2ccccc2)CC1 | 10.8%
10 | Cc1ccc(C)c(NC(=O)C(CC(=O)O)Cc2ccccc2)c1 (stereo not shown) | 9.71%
11 | CC1CCCCC1NC(=O)COC(=O)c1cccn1C (stereo not shown) | 10.8%
12 | C=C1CCC[C@]2(C)C[C@H]3OC(=O)C(CN[C@@H](C)c4ccccc4)[C@H]3CC12 (stereo partly shown) | 12.6%
13 | O=C(NCc1ccco1)C1CCCN(c2nnc(-n3cccc3)s2)C1 (stereo not shown) | -26.8%
14 | Cc1cccc(NC(=O)C(=O)C2C(=O)Nc3ccccc32)c1 (stereo not shown) | 4.05%
15 | CC(=O)Nc1cccc(NC(=O)C2CC(=O)N(C3CCCCC3)C2)c1 (stereo not shown) | 4.19%
16 | C=CCNc1nc(N(c2ccccc2)c2ccccc2)nc(-n2ccnc2)n1 | 7.1%
17 | O=C(NCC1CCCN(Cc2ccc3c(c2)OCCO3)C1)c1ccc2c(c1)OCO2 (stereo not shown) | -18.8%
18 | COc1ccc(O)c(-c2[nH]ncc2C(=O)c2cccc(C)c2)c1 | 10%
19 | O=[N+]([O-])c1ccc(O)c(N=Cc2sc3ccccc3c2O)c1 | 6.16%
20 | CCOc1c(Cl)cc(/C=N/O)cc1OC | 4.13%
21 | COc1ccc(N(CC(=O)Nc2cccc(C(C)=O)c2)S(=O)(=O)c2ccc(NC(C)=O)cc2)cc1 | -2.7%
22 | CCOC(=O)CCC(NC(=O)c1ccccc1C(=O)NC(CCC(=O)OCC)C(=O)OCC)C(=O)OCC (stereo not shown) | -21.8%
23 | CCCCCn1c(SCCc2ccccc2)nc2c1c(=O)[nH]c(=O)n2C | -17.4%
24 | C/C(=N/OC(=O)c1c(-c2c(F)cccc2Cl)noc1C)c1cnccn1 | -9.96%
25 | CC(=O)N(CC(=O)Nc1sc(C)c(C)c1C(N)=O)Cc1ccccc1 | -1.81%
26 | COc1ccc(N2CC(C(=O)OC(C)C(=O)c3ccccc3)CC2=O)cc1 (stereo not shown) | 4.12%
27 | CS(=O)(=O)N(CC(=O)NCc1ccncc1)C1CCCCC1 | 1.91%
28 | Brc1ccccc1/C=N/Nc1ccccn1 | 28.1%

Row | SMILES | hERG current change (%, negative = inhibition) at 10uM
29 | O=C(Cc1ccc(S(=O)(=O)N2CCOCC2)s1)N1CCN(S(=O)(=O)c2cccc([N+](=O)[O-])c2)CC1 | -27.1%
30 | O=P(C(c1ccc2c(c1)OCO2)N1CCOCC1)(N1CCOCC1)N1CCOCC1 (stereo not shown) | 4.64%
31 | O=C(CSc1oc(-c2ccccc2)nc1S(=O)(=O)c1ccccc1)NCC1CCCO1 (stereo not shown) | 2.1%
32 | Fc1ccc(C2=NN(c3ccccc3)C(c3ccco3)C2)cc1 (stereo not shown) | 2.64%
33 | COc1ccc(N2CCN(C(=O)c3cc4c(-c5ccc(Cl)cc5)nn(C)c4s3)CC2)cc1 | -14.8%
34 | CC[C@@H](C)[C@H](NC(=O)Cc1c(C)c2c(cc(C)c3c(C)coc32)oc1=O)C(=O)O | 12%
35 | Cc1ccc(S(=O)(=O)c2c(N)n(-c3ccccc3)c3nc4ccccc4nc23)cc1 | 7.23%
36 | Cc1ccc(NC(=O)CN2C(=O)NC3(CCC(C)CC3)C2=O)c(Cl)c1 (stereo not shown) | 11.1%
37 | CCCCCCSc1ccc([C@H]2N[C@@](CC(C)C)(C(=O)OC)[C@H]3C(=O)N(C)C(=O)[C@@H]23)cc1OC.O=C(O)C(F)(F)F | -43.9%
38 | CCOc1ccc2c(c1)-c1c(ssc1=S)C(C)(C)N2C(=O)c1ccco1 | 18.3%
39 | CCC(C(=O)Nc1ncccn1)(C(F)(F)F)C(F)(F)F | 4.41%
40 | COc1ccc(NC(=O)N2CCCCC2)cc1 | -9.7%
41 | Cn1cc(CN2CCN(Cc3cccnc3)CC2)c(-c2ccc3c(c2)OCCO3)n1 | -27.1%
42 | CCOC(=O)C1=C(C)NC(=O)NC1c1ccc(-c2ccc(Cl)cc2)o1 (stereo not shown) | 16.1%
43 | CCc1c(C(=O)Nc2ccccc2C(N)=O)csc1C | 12.7%
44 | Cc1ccc(NC(=O)C(=O)NCCN2CCN(S(C)(=O)=O)CC2)cc1 | 19.6%
45 | CCNc1nc(NC(C)C)nc(Nn2cnnc2)n1 | 9.05%
46 | CC(C)n1c(SCC(=O)NCc2ccco2)nnc1C1CC1 | 20.2%
47 | COC(=O)c1ccc(OC(=O)CN2C(=O)c3ccccc3C2=O)cc1 | 18.1%
48 | COc1ccc(C(=O)Nc2ccc(N3CCCC3)cc2)cc1Br | 6.19%
49 | COc1cc(O)oc1C=Nc1ccc(C(=O)O)cc1 | 18.2%
50 | S=c1[nH]nc(NCCc2ccccc2)s1 | 19.3%
51 | Cn1c(=O)[nH]c(=O)c2c1nc(SCC(=O)Nc1ccccc1)n2Cc1ccccc1 | -25.5%
52 | CC1(C)C(C(=O)N2CCN(c3ccc(Cl)cc3)CC2)C1(C)C | -9.39%
53 | COc1ccc(C(=O)C2CCCN(Cc3ccc4c(c3)OCCO4)C2)cc1F (stereo not shown) | -74.7%
54 | COc1cccc(N2CCN(C(=O)c3nc4nc(C)cc(C)n4n3)CC2)c1 | 7.28%
55 | COC(=O)[C@@H]1C[C@@]2(O)[C@H](O)[C@H](O)[C@H](O)C[C@H]2N1Cc1ccc(C(F)(F)F)cc1 | 13.2%
